PubChem BioAssay AID686979 (National Center for Advancing Translational Sciences (NCATS), 2013)
Hit rate of the full screen: of about 420,000 compounds, about 50,000 (12%) were called active. Inconclusive results (about 26%) are left out. The call rests on the fitted dose curve; in most records, active means well fitted inhibition curve with a large enough effect; inconclusive means small, poorly fitted or top-dose-only effect; inactive means flat fitted curve, though single readings scatter. The entries are a selection whose mix differs from that of the whole data set.

Experiment: qHTS for Inhibitors of human tyrosyl-DNA phosphodiesterase 1 (TDP1): qHTS in cells in presence of CPT; further: nearly all actives have a fitted effect of over 55% in size
Conditions: chicken DT40 Tdp1-/-;hTDP1 cells + 20 nM CPT, ATP luminescence, 48 h; series mostly up to 46.2 µM; activity change, negative = growth inhibition: at the top concentration
Summary of the method: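 Chicken DT40 Tdp1-/- cells complemented with human TDP1, 400 cells/well, exposed to compounds plus 20 nM camptothecin for at least 48 h at 37 C; viability read as ATP content by CellTiter-Glo luminescence.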
On the % scale 0 is the no-effect control and ±100 the full control effect; potency means the concentration at half of the fitted maximal effect.

Which “activity change, negative = growth inhibition” value does the source give for `Cc1c(NC(=O)c2cc(-c3ccc(Cl)c(Cl)c3)on2)c(=O)n(-c2ccccc2)n1C` here?
Its value is inactive: -24.2%.

With `Cc1cc2c(cc1S(=O)(=O)NCc1ccccc1Cl)OCCN2C` as the molecule, how does the “activity change, negative = growth inhibition” value read?
The value was inactive: -13.7%.

For `COc1ccc(Cl)cc1C(=O)NCc1ccc2c(c1)OCO2`, which “activity change, negative = growth inhibition” value is on record?
Its value is inactive: 30.8%.

With `c1csc(CNc2ncnc3nc[nH]c23)c1` as the molecule, how does the Potency read?
The Potency was “inactive”.

Which “activity change, negative = growth inhibition” value does the source give for `CC(=O)C[C@@H](O)CC(=O)[C@@H]1OC(=O)[C@@H](C)CCCCc2ccccc21` here?
Its value is inactive: 1.86%.

For `COC(=O)C(C)Oc1ccc(-c2nccc(-c3cccs3)n2)cc1` (stereo unspecified), which “activity change, negative = growth inhibition” value is on record?
Its value is inactive: 31.8%.

Which Potency does the source give for `CCc1ccccc1N(C)C(=O)c1cn(CC(C)C)c(=O)c2cc(OC)c(OC)cc12` here?
Its Potency is active: 10.3 µM.

For `CCCOc1ccc(/C=C/c2[nH]c(=O)[nH]c(=O)c2[N+](=O)[O-])cc1OCC`, which “activity change, negative = growth inhibition” value is on record?
Its value is inactive: 27%.

With `CC(=O)N1CCc2c(sc3c2c(=O)n(-c2ccccc2)c(=O)n3CC(=O)Nc2ccccc2)C1` as the molecule, how does the “activity change, negative = growth inhibition” value read?
The value was inactive: 31.1%.

With `CC1=C(C(=O)Nc2ccccc2)C(c2ccccn2)n2nc(SCc3ccccc3)nc2N1` (stereo unspecified) as the molecule, how does the Potency read?
Its Potency is active: 5.17 µM.

With `O=C(N/N=C\c1ccccn1)c1cccc(C(=O)N/N=C\c2ccccn2)n1` as the molecule, how does the “activity change, negative = growth inhibition” value read?
The value was inactive: -5.04%.

Which “activity change, negative = growth inhibition” value does the source give for `CS(=O)(=O)Nc1nc2n(n1)C(c1ccc(F)cc1)CC(c1ccccc1)N2` (stereo unspecified) here?
The value was inactive: 10.1%.

With `C[C@H](CO)N1C[C@H](C)[C@@H](CN(C)Cc2ccc3c(c2)OCCO3)OCc2cnnn2CCCC1=O` as the molecule, how does the “activity change, negative = growth inhibition” value read?
Its value is inactive: 5.63%.

Which Potency does the source give for `Cc1ccc(C(C)C)cc2c(C)ccc1-2` here?
Its Potency is “inactive”.

With `O=C1[C@H](Cc2ccccc2)NC/C=C\C[C@@H](c2ccc(Cl)cc2)N1Cc1ccccc1` as the molecule, how does the Potency read?
Its Potency is active: 12.6 µM.

Which Potency does the source give for `O=C(NCc1ccc(F)cc1)c1cc(C2CCCN(C(=O)CCCc3ccccc3)C2)on1` (stereo unspecified) here?
Its Potency is active: 23.1 µM.

For `Cc1ccc(NC(=S)NNC(=S)Nc2ccc(C)cc2)cc1`, which Potency is on record?
The Potency was active: 6.51 µM.

With `Cc1ccc(C)c(N(C(=O)c2snc(C(N)=O)c2N)C(C(=O)NCC2CCCO2)c2cccs2)c1` (stereo unspecified) as the molecule, how does the Potency read?
Its Potency is active: 7.31 µM.

With `CCCCn1nnnc1C(c1cc2ccccc2o1)N1CCN(CC(=O)NC(C)C)CC1` (stereo unspecified) as the molecule, how does the “activity change, negative = growth inhibition” value read?
Its value is inactive: -17.6%.

With `CCCCc1ccc(NC(=O)C(=O)NCCN2CCN(Cc3ccc([N+](=O)[O-])cc3)CC2)cc1` as the molecule, how does the Potency read?
The Potency was active: 3.26 µM.

Which “activity change, negative = growth inhibition” value does the source give for `O=c1oc2ccccc2cc1-c1nc2c(s1)CCc1ccccc1-2` here?
The value was inactive: -8.82%.

With `CCC(CC)C(=O)N(C)c1c(C)nc2c(OCc3ccccc3C)cccn12` as the molecule, how does the Potency read?
The Potency was active: 6.51 µM.

Which Potency does the source give for `Cc1cccc(NC2=C(NCCO)C(=O)c3ccccc3C2=O)c1` here?
Its Potency is active: 16.4 µM.

With `CS(=O)(=O)Nc1ccc([N+](=O)[O-])cc1Oc1ccccc1` as the molecule, how does the Potency read?
Its Potency is “inactive”.

With `COc1cc(C)nc(-n2nc(C)cc2OC)n1` as the molecule, how does the Potency read?
The Potency was “inactive”.

For `CC1=C(C(=O)NCc2ccc(Cl)cc2)C2(CCC(C)CC2)OC1=O` (stereo unspecified), which “activity change, negative = growth inhibition” value is on record?
The value was inactive: -28.5%.
